Consider 86 molecules from PMC4336329 (PLoS ONE, 2015).

Out of some 310,000 compounds screened, about 14,000 (4.5%) showed an effect of 50% or more. The effect is printed as a negative number. The list shows a part of the results.
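Note: peak tail current of the secondary pulse compared with the same well before compound.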

This experiment deals with human ether-à-go-go-related gene (hERG) potassium channel (human, UniProt Q12809). Put plainly: primary screen, population patch clamp on CHO cells stably expressing hERG.
Sequence of human ether-à-go-go-related gene (hERG) potassium channel (Q12809 whole entry, looked up): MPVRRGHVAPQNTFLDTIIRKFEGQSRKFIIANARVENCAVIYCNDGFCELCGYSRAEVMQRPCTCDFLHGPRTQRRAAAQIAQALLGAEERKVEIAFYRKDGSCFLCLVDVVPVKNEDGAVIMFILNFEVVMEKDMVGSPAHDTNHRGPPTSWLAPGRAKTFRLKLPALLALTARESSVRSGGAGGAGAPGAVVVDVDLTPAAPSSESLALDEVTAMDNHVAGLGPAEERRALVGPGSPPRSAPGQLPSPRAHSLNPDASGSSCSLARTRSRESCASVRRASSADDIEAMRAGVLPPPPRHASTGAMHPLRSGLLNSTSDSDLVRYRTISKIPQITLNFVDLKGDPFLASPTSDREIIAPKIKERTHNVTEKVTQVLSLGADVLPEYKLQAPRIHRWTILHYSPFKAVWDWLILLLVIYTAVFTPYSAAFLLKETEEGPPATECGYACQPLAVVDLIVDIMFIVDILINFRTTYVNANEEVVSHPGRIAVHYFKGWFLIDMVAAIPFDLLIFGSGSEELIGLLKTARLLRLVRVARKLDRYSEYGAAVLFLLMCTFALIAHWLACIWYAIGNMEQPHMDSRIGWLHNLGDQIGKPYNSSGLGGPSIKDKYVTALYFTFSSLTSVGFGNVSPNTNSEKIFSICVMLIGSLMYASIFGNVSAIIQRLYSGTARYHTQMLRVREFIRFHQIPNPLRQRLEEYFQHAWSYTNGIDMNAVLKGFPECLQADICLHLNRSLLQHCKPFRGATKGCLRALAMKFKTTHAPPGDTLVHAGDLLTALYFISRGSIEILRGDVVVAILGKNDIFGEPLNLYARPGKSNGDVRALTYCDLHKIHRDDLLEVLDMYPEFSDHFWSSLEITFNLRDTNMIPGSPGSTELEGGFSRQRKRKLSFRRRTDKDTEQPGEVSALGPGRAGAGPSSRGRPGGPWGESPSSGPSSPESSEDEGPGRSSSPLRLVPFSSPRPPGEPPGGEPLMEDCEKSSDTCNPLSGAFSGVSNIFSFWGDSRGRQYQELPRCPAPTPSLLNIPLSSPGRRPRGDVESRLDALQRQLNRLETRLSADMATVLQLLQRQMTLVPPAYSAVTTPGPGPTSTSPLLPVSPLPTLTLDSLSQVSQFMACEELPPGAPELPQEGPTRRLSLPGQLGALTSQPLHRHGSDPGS
Regarding `CCCCOC(=O)c1ccc(NC(=O)C(=O)CC(=O)c2ccc(OC)cc2)cc1`, the “hERG current change (%, negative = inhibition) at 10uM” value came to 11.6%. To `CC(C)NC(=O)CC(=O)N/N=C/c1ccccc1F` belongs 14.4%; to `CCOC(=O)C1=C(N)OC2=C(C(=O)CC(C)(C)C2)C12C(=O)Nc1ccccc12` (centres unmarked), 24.9%. To `COc1ccc(CN2CCNC(=O)C2CC(=O)NC2Cc3ccccc3C2)c(OC)c1` (centres unmarked) belongs 16.5%; to `O=C(Nc1ccc(Cl)cc1)N1CCN(c2ccc3nnc(-c4ccc(F)cc4)n3n2)CC1`, -28.3%; to `CC1=C(C(=O)N2CCCC(N3CCN(c4ccccc4F)CC3)C2)OCCO1` (centres unmarked), 11.5%.

Take `CCOc1ccc(NC(=O)C(=O)NCCN2CCN(S(=O)(=O)c3ccc(C)cc3)CC2)cc1`: the “hERG current change (%, negative = inhibition) at 10uM” value came out at 8.62%.

On to `CCCNc1c(NS(=O)(=O)c2cccc(C#N)c2)c(=O)oc2ccccc12`, for which the “hERG current change (%, negative = inhibition) at 10uM” value was -58.7%.

Regarding `CC(=O)c1ccc(OCC(=O)Nc2ccc3nc(C)sc3c2)cc1`, the “hERG current change (%, negative = inhibition) at 10uM” value worked out at 7.19%.

On to `O=C(Nc1ccc(Cl)c(C(F)(F)F)c1)c1ccncc1`, for which the “hERG current change (%, negative = inhibition) at 10uM” value worked out at 5.44%. To `CC[C@]12CCCN3CCc4c(n(c5ccccc45)[C@](O)(C(=O)OC)C1)[C@@H]32` belongs -72.4%.

Take `COC(=O)c1oc(-c2ccc(Cl)cc2)nc1C`: the “hERG current change (%, negative = inhibition) at 10uM” value is on record as -5.49%. On to `COC(=O)CN1C(=O)C2(C(C#N)=C(N)Oc3n[nH]c(-c4cccs4)c32)c2ccccc21` (centres unmarked), for which the “hERG current change (%, negative = inhibition) at 10uM” value came to 1.64%.

Regarding `O=C(COC(=O)c1ccccc1C(=O)N1CCN(c2ccccc2)CC1)Nc1ccccc1`, the “hERG current change (%, negative = inhibition) at 10uM” value was -25.8%. Consider `COc1ccc(-c2csc(NC(=O)C3CC(=O)N(Cc4ccco4)C3)n2)cc1` (centres unmarked), for which the “hERG current change (%, negative = inhibition) at 10uM” value is on record as -70.4%.

For the molecule `Cc1ccc(C(C(=O)NC(C)(C)C)N(Cc2ccco2)C(=O)Cn2nnc(-c3cccs3)n2)cc1` (centres unmarked), the “hERG current change (%, negative = inhibition) at 10uM” value is given as 18.8%. The figure for `CSc1ccccc1C(=O)NC1CCSc2ccccc21` (centres unmarked) is -11.2%; for `CC(Nc1ncnc2sccc12)c1ccccc1` (centres unmarked) it is -29.8%. To `CC1CCCC(C)N1C(=O)COC(=O)CNC(=O)c1sc2ccccc2c1Cl` (centres unmarked) belongs -6.03%; to `COc1cc(C(=O)Nc2sc3c(c2C#N)CCN(C(C)=O)C3)cc(OC)c1OC`, 7.38%. Consider `COc1cc(C2C3=C(CC(C)(C)CC3=O)Nc3c2c(=O)[nH]c(=O)n3Cc2ccccc2)ccc1O` (centres unmarked), for which the “hERG current change (%, negative = inhibition) at 10uM” value is -11.1%. To `COc1cc(CNCCc2c[nH]c3ccccc23)cc(Cl)c1OCC(N)=O.Cl` belongs -36.6%; to `CCOC(=O)c1ccccc1NC(=O)CN1CCC(n2nnc3cc(C(F)(F)F)ccc32)CC1`, -6.11%.

For `COCCCNC(NC(=O)c1ccc(C)cc1)C(Cl)(Cl)Cl` (centres unmarked), the “hERG current change (%, negative = inhibition) at 10uM” value is reported as -7.03%. With `CCCCCCCNC(=O)C1(CC2CC(c3ccc(Cl)cc3)=NO2)CCN(C(=O)c2ccccc2)CC1` (centres unmarked), the “hERG current change (%, negative = inhibition) at 10uM” value was -15.8%. As to `COc1ccc(C(=O)c2coc3ccc(O)c(CN(C)C)c23)cc1`, the “hERG current change (%, negative = inhibition) at 10uM” value is recorded as -57.9%.

On to `COc1cc2[nH]c(=O)n(CCC(=O)NCCCN3CCN(c4ccccc4F)CC3)c(=O)c2cc1OC`, for which the “hERG current change (%, negative = inhibition) at 10uM” value is given as -35.4%.

In the case of `CCCCN1C(=S)SC(C)(C)C1/[N+]([O-])=C/c1ccc(S(=O)(=O)NC)cc1` (centres unmarked), the “hERG current change (%, negative = inhibition) at 10uM” value was 12.2%. The figure for `CCOc1ccc(C(=O)NCC(=O)OCCN2C(=O)c3ccccc3C2=O)cc1OCC` is -11.8%; for `Cc1ccccc1N1C(=O)C(Cl)=C(N2CCCCCC2)C1=O` it is -13.6%; for `Cc1ccc2c(=O)cc(C(=O)NCc3ccccc3)oc2c1C` it is 14.9%.

As to `CCCSc1nnc(-c2c[nH]c3ccccc23)n1C`, the “hERG current change (%, negative = inhibition) at 10uM” value stood at 6.2%. For the molecule `COc1ccc(N/C=C2\CCc3ccccc3C2=O)cc1`, the “hERG current change (%, negative = inhibition) at 10uM” value stood at 0.787%. Consider `CCOc1cc(/C=N/NC(=O)c2cc(-c3cccnc3)nc3ccccc23)ccc1O`, for which the “hERG current change (%, negative = inhibition) at 10uM” value is recorded as 36%. Take `O=C(O)CCCC(=O)Nc1ccccc1Oc1ccccc1`: the “hERG current change (%, negative = inhibition) at 10uM” value is listed as 1.31%. On to `O=c1c2ccccc2nc2n1C(CSCc1cccc(C(F)(F)F)c1)CS2` (centres unmarked), for which the “hERG current change (%, negative = inhibition) at 10uM” value is -23.4%. Regarding `COc1ccccc1NC(=O)COC(=O)C1C2CC3OC(=O)C1C3C2` (centres unmarked), the “hERG current change (%, negative = inhibition) at 10uM” value was found to be 5.63%.

As to `CCC(C(=O)OC)n1cnc2c(nnn2-c2ccc(C)cc2)c1=O` (centres unmarked), the “hERG current change (%, negative = inhibition) at 10uM” value is recorded as -11.8%. In the case of `CCOC(=O)C1=C(C)N(CC)C(=S)NC1c1ccccc1OC(F)F` (centres unmarked), the “hERG current change (%, negative = inhibition) at 10uM” value is reported as -13.6%. To `COCCn1nnnc1C(c1ccc(OC)c(OC)c1)N1CCN(c2nc3ccccc3s2)CC1` (centres unmarked) belongs -56.3%; to `COC(=O)[C@@H]1C(c2c(OC)cc(OC)cc2OC)=NO[C@H]1C(=O)OC`, 12.3%.

Take `Cc1nnc(SCC(=O)N(C(C)C)C(C)C)[nH]c1=O`: the “hERG current change (%, negative = inhibition) at 10uM” value turned out to be 6.59%. The figure for `Cl.O=C(OCCN1CCOCC1)c1ccc2c(c1)OCCO2` is 3.89%; for `NC(=O)CC[C@@H]1NC(=O)[C@H](CO)NC(=O)c2cc([N+](=O)[O-])cc(I)c2NCCCC[C@@H](C(N)=O)NC(=O)[C@H](Cc2ccc(O)cc2)NC1=O` it is 15.5%. To `CCOC(=O)c1c(NC(=O)c2cccs2)sc2c1CCN(C(=O)OCC)C2` belongs -14.1%; to `Cn1c2ccc(F)cc2c2ncn(CCCN(CCO)CCO)c(=O)c21`, -40.2%; to `CCOC(=O)C/C(C)=N\Nc1ccc([N+](=O)[O-])cc1[N+](=O)[O-]`, -40.2%.

As to `Cc1ccc(C)c(NC(=O)NC2CCCCCCC2)c1`, the “hERG current change (%, negative = inhibition) at 10uM” value is reported as -3.25%. `CC(=O)Nc1ccc(N2CCc3c(C)c(C#N)c4nc5ccccc5n4c32)cc1`: the “hERG current change (%, negative = inhibition) at 10uM” value is listed as 8.55%. To `O=C(NCCN1CCCCCC1)C1CCCN1S(=O)(=O)c1cccc2nsnc12` (centres unmarked) belongs -5.79%; to `CCc1cc2cc(C(=O)N3CCN(c4ccccc4)CC3)sc2s1`, 10.6%.

Regarding `CC(C)c1ccc(CN(C)C(=O)c2ccc(S(=O)(=O)NCc3ccco3)cc2)cc1`, the “hERG current change (%, negative = inhibition) at 10uM” value is reported as -33.7%. On to `CCC(=O)NNc1ncnc2ccccc12`, for which the “hERG current change (%, negative = inhibition) at 10uM” value is 9.38%.

`CCn1cc(C2=NCC(C)O2)c2ccccc21` (centres unmarked): the “hERG current change (%, negative = inhibition) at 10uM” value was determined as 3.98%. To `COC(=O)CSc1ccc(S(=O)(=O)N2CCOCC2)cc1[N+](=O)[O-]` belongs -0.557%; to `CCNC(=O)Nc1ccccc1C(=O)OC`, 12.1%; to `O=C(CSC1CCCCC1)N1CCN(c2ccccc2)CC1`, -7.87%. As for `O=C(COC(=O)CN1C(=O)C(=O)c2ccccc21)OCN1C(=O)c2ccccc2C1=O`, the “hERG current change (%, negative = inhibition) at 10uM” value is recorded as -9.43%. For `Cc1cc(C)c(OCC(=O)Nc2ccc(S(=O)(=O)N3CCCC3)cc2)c(C)c1`, the “hERG current change (%, negative = inhibition) at 10uM” value is recorded as -23.6%. On to `O=C(Cc1ccccc1)NC(=S)Nc1ccc2oc(-c3ccccc3)nc2c1`, for which the “hERG current change (%, negative = inhibition) at 10uM” value is 10.5%. The figure for `CCOC(=O)CNC(=O)CSc1nc2cccnc2n1C1CCCCC1` is 5.85%; for `CC(Oc1ccccc1F)c1ccnc2nc(/N=C/N(C)C)nn12` (centres unmarked) it is 9.9%; for `O=[N+]([O-])c1ccc(C2=Nn3c(Cn4nnc5ccccc54)nnc3SC2)cc1` it is -21.1%. To `COc1ccc(OCC(=O)Nc2ccc(N3CCC(C)CC3)cc2)cc1` belongs 12%. With `CCC(=O)Nc1ccc(Cl)c(-c2nc3ncccc3o2)c1`, the “hERG current change (%, negative = inhibition) at 10uM” value is reported as -11%. As to `O=C(O)CCn1cc(/C=C2\NC(=S)N(c3ccccc3)C2=O)c(-c2ccc(Br)cc2)n1`, the “hERG current change (%, negative = inhibition) at 10uM” value amounted to 30.1%. For the molecule `CC(C)Nc1ncnc2c1nnn2Cc1ccccc1`, the “hERG current change (%, negative = inhibition) at 10uM” value is -2.54%. The figure for `Cc1cc(=O)oc2cc(OCC(=O)NCCN3CCOCC3)ccc12` is 18.9%; for `Cc1cccc(C)c1NC(=O)CNC(=O)c1cn(-c2ccccc2)nc1-c1ccccc1` it is 6.88%; for `CC12CCC(C(=O)NCc3ccco3)(OC1=O)C2(C)C` (centres unmarked) it is 2.02%. The figure for `CCc1ccc(NC(=O)CSc2nnc(CC)c(CC)n2)cc1` is -19.5%. The figure for `COCCCNC(=O)C(C)N1c2cccc3cccc(c23)S1(=O)=O` (centres unmarked) is 12.3%; for `CC1=CC(C)(C)NC(=S)N1c1cccc2ccccc12` it is 15.1%; for `O=C(CSc1nnc(NC(=O)c2cccc(F)c2)s1)NC1CC1` it is 11.8%.

Regarding `COc1ccc(C2=NN(CCC(=O)NCc3ccc4c(c3)OCO4)C(=O)CC2)cc1`, the “hERG current change (%, negative = inhibition) at 10uM” value is -18.8%. The figure for `O=C(COC(=O)c1ccco1)NCCc1ccc(Cl)cc1` is -6.24%; for `S=c1[nH]nc(Cn2cnc3ccccc32)n1-c1ccccc1Cl` it is 18.4%. To `COc1ccc(C2CC2/C(C)=N/OC(=O)c2ccc(F)cc2)cc1` (centres unmarked) belongs 0.458%.

As to `COc1cc(C2c3c(-c4cc(C)cc(C)c4O)n[nH]c3C(=O)N2CCCO)cc(OC)c1OC` (centres unmarked), the “hERG current change (%, negative = inhibition) at 10uM” value is -2.71%. To `COc1ccc2cc(C(=O)C3CCCN(C(=O)c4cncs4)C3)ccc2c1` (centres unmarked) belongs -22.8%; to `COc1ccccc1CCNS(=O)(=O)CCNC(=O)c1ccc2c(c1)OCO2`, -3.02%; to `O=C(/C=C/c1ccccc1)NCCCNC(=O)/C=C/c1ccccc1`, 1.71%. Consider `O=C(O)c1ccc(OCC(F)(F)F)nc1`, for which the “hERG current change (%, negative = inhibition) at 10uM” value is recorded as 22.7%.

`Cc1cc(C(=O)N/N=C/c2ccncc2)c(C)o1`: the “hERG current change (%, negative = inhibition) at 10uM” value came to 13.9%. In the case of `CCOC(=O)C1=C(CS(=O)(=O)c2ccc(F)c(C)c2)NC(=O)NC1c1ccc(O)c(O)c1` (centres unmarked), the “hERG current change (%, negative = inhibition) at 10uM” value came to 10.8%. To `O=C(NNC(=O)c1ccccc1Br)c1ccc(Cl)cc1` belongs 5.81%.
